Here are results for 45 sequences from the supplement of paper PMC11417369.

± gives the standard deviation of the averaged measurements. Some of the results follow.

The test relates to PfAP2-I AP2 domain 3 (GST-tagged). The test is described as follows: gcPBM binding intensity (ln(normalized median fluorescence intensity)); higher = stronger DNA binding. A digest of the protocol:
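The highest Masliner-normalised natural-log median intensity across replicate spots of either probe orientation is reported as binding intensity. GST-tagged P. falciparum DNA-binding domains expressed in E. coli were applied for 1 h to an Agilent 4 × 180k array of primer-extended double-stranded 36-bp intergenic genomic probes plus negative controls, and bound protein was detected with Alexa488 anti-GST antibody and scanned at 488 nm.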
Take “GATATTTTTATTTGTTGTACTTAAGATAATAAATGA [XGTACX_site2891]”: the “gcPBM binding intensity (ln)” value came to 7.98 ± 0.31. The result for “AAAAAAAAAAAAATACGTACACAAAAAATTGCAAAG [XGTACX_site5663]” reads 8.32 ± 0.2. Next, “AATATATTAAAAAAGCGTACAAGAATTGGAAAATGG [XGTACX_site6576]”: 8.21 ± 0.58. The result for “TGTATAACCTGTGTTACACACATTAAAATTTATATA [CACACA_site4449]” reads 7.67 ± 0.46; that for “ATAAATGTGTTTATTTAACACACAAAAGAAAAAATA [CACACA_site8589]”, 7.75 ± 0.73. On to “TTTTTAGTAACATATAGTACATATATATATATATGT [XGTACX_site4780]”, for which the “gcPBM binding intensity (ln)” value was determined as 8.07 ± 0.42. The result for “TTAATACAAATAAAAAGTACAAGTATCGAACTACTA [XGTACX_site6308]” reads 7.48 ± 0.4. Next, “ATAATATGAAACTCGTACGAGGTTGTCCCAAATATA [CACACA_negctrl_site1350]”: 7.8 ± 0.64. Next, “TTATTTTTTCTTCAAATGTGAATTATTCATTTATTT [TGCATGCA_negctrl_site545]”: 7.59 ± 0.49; “ATATATTATCAACTTACACACAGAAAAATATAATAA [CACACA_site293]”: 7.72 ± 0.45.

Take “GATATGTAAATAATATGTACATATTTATATTGTATT [XGTACX_site4052]”: the “gcPBM binding intensity (ln)” value came out at 7.7 ± 0.35. As to “TTTAAAGGTGATAAAACACACGATTTAGAAATGTAT [CACACA_site3161]”, the “gcPBM binding intensity (ln)” value came out at 8.04 ± 0.52. Consider “AAAAAGAATGTGAACACACACATTGAATATAATTTA [CACACA_site1262]”, for which the “gcPBM binding intensity (ln)” value is 7.51 ± 0.42. In the case of “AAAAAAAAAACACACACATGCACATCATATTATATA [TGCATGCA_site133]”, the “gcPBM binding intensity (ln)” value stood at 8.05 ± 0.15. For “TCCAATTCTTTATTTTGTACACATTATGTGCATATG [XGTACX_site6290]”, the “gcPBM binding intensity (ln)” value is 8.73 ± 0.057. Next, “GTTGTTATATAAAGGAGTACATAATAACACAAATAT [XGTACX_site615]”: 8.38 ± 0.48; “TTTTCTTGTAGTATAACAAAATATAGTAATATATAT [GTGCAC_negctrl_site609]”: 7.86 ± 0.45.

In the case of “AAAAAAAAAAAAAAAACACACATTTATAGTATATAT [CACACA_site1194]”, the “gcPBM binding intensity (ln)” value worked out at 8.53 ± 0.28. Next, “GATTTATTTCATATCACACATTTTGGCTATTTTGTG [CACACA_site5793]”: 7.65 ± 0.67. The result for “CCATTTGGTATTATATGTACATATAATTTTTTTTTT [XGTACX_site157]” reads 7.89 ± 0.49; that for “AATCCTTCATATGTAGTGCATATTAACAAAATAAAA [GTGCAC_site9500]”, 9.9 ± 0.27. On to ATGAAATATTTATTTGTGCACTTAATTTGTTGGAAA, for which the “gcPBM binding intensity (ln)” value was 11.2 ± 0.21.

As to “GTATATATGTATATGTGTACATATATTTTATAATAT [XGTACX_site5703]”, the “gcPBM binding intensity (ln)” value turned out to be 7.79 ± 0.33. Consider “AAAAACGAAAAAAATACACACCTGAAAAGATATGTA [CACACA_site4644]”, for which the “gcPBM binding intensity (ln)” value is 7.21 ± 0.58. The result for “GGAATAACCAGACACACACACACATATATATATATA [CACACA_site3541]” reads 9.37 ± 0.27. The result for “TATATATAATATTATACACACATATCTGCATAATAT [CACACA_site4202]” reads 8.13 ± 0.49; that for “AGATCATAATATTATACACACATTATATATATGTAA [CACACA_site8419]”, 7.89 ± 0.42. Consider “TGGAAAGTTATTAACACACACATATAAATATTTATA [CACACA_site6173]”, for which the “gcPBM binding intensity (ln)” value was determined as 7.69 ± 0.4.

As for “AAGTACCATATAGGCACACATATATATATATATATA [CACACA_site3282]”, the “gcPBM binding intensity (ln)” value was found to be 9.47 ± 0.6. Turning to “AAAAACCATTCGCACACACACATAATCTATAATATA [CACACA_site6782]”, the “gcPBM binding intensity (ln)” value came out at 8.32 ± 0.48. The result for “AATATATATATTAAATGTACATTACATAATTATATA [XGTACX_site3450]” reads 7.66 ± 0.2; that for “TAAATGAAAATATGTACACACTTGAAAACTTTTATG [CACACA_site7388]”, 7.84 ± 0.45. Consider “TGCAACAAAATAAACACACACACACTAGCACAAAAA [CACACA_site5805]”, for which the “gcPBM binding intensity (ln)” value turned out to be 8.36 ± 0.48. On to “TTTTTTTTTTTAGACACATGCATTTTTATAATTTTC [TGCATGCA_site843]”, for which the “gcPBM binding intensity (ln)” value turned out to be 8.1 ± 0.78. “AATATTTTGATGTGTACACATTAATACAGTTTTACA [CACACA_site5711]”: the “gcPBM binding intensity (ln)” value worked out at 8.21 ± 0.29. Next, “TATATATATTAACTTGTGCGCAAAAAGATATAATTT [GTGCAC_site9672]”: 8.95 ± 0.38; “ATATGTATGTATGTCTCAAAATTTCATATTATATTA [CACACA_negctrl_site784]”: 7.43 ± 0.56; “TAGGATATTGAATAATGTACTTTATATATAATATAA [XGTACX_site7828]”: 7.61 ± 0.42. Next, “AAGAAATAAAAAAAACGTACATATATACATACATAC [XGTACX_site3980]”: 8.58 ± 0.44; “AACATATTAATGTACACACACCCACGCACAAACAAA [CACACA_site7320]”: 8.56 ± 0.2; “TAGGAGAAAAAAAAAAGTACCCACAACTATTATACT [XGTACX_site8195]”: 7.92 ± 0.46. Next, “TGGTAATATCGATTCACACATATCAAAATAAAAAAA [CACACA_site4196]”: 7.72 ± 0.49; “TCCTAATGCTACCACACACACAAAAACAAATAATAA [CACACA_site2610]”: 8.47 ± 0.099; “TTATAAGATTTATGTACACACATATACACAGCTCTA [CACACA_site6481]”: 7.76 ± 0.5. Turning to “AGTATTATATATATATGTACATAATATACATATATA [XGTACX_site8514]”, the “gcPBM binding intensity (ln)” value is 7.61 ± 0.4.
